Test results as given in the supplement of paper PMC8728848.
The other results are listed elsewhere or left out.

Experiments:
Experiment in all cases: glycan array binding signal (z-score within array); higher = stronger binding
Settings in all cases: glycan notation: IUPAC condensed, linker removed
[1] = target: Gal(b1-3)GlcNAc(b1-3)Gal(b1-4)GlcNAc(b1-2)[Gal(b1-3)GlcNAc(b1-3)Gal(b1-4)GlcNAc(b1-6)]Man(a1-6)[Gal(b1-3)GlcNAc(b1-3)Gal(b1-4)GlcNAc(b1-2)Man(a1-3)]Man(b1-4)GlcNAc(b1-4)[Fuc(a1-6)]GlcNAc
Outline: (§1)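 Glycan array binding is given as a within-array Z-score, which can be read as non-binding when negative. The arrays, 3228 of them, came from the Consortium for Functional Glycomics database and were retained only where the protein sequence was available. Z-scores were averaged across arrays of the same protein sequence at different concentrations or buffers and across linkers.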

[2] = target: Gal(b1-3)GlcNAc(b1-3)Gal(b1-4)GlcNAc(b1-3)Gal(b1-4)GlcNAc(b1-2)[Gal(b1-3)GlcNAc(b1-3)Gal(b1-4)GlcNAc(b1-3)Gal(b1-4)GlcNAc(b1-6)]Man(a1-6)[Gal(b1-3)GlcNAc(b1-3)Gal(b1-4)GlcNAc(b1-3)Gal(b1-4)GlcNAc(b1-2)Man(a1-3)]Man(b1-4)GlcNAc(b1-4)[Fuc(a1-6)]GlcNAc
Outline: as §1

[3] = target: Gal(b1-3)GlcNAc(b1-3)Gal(b1-4)GlcNAc(b1-6)[Gal(b1-3)GlcNAc(b1-3)]Gal(b1-4)Glc
Outline: as §1

[4] = target: Gal(b1-3)GlcNAc(b1-3)Gal(b1-4)[Fuc(a1-3)]GlcNAc
Outline: as §1

[5] = target: Gal(b1-3)GlcNAc(b1-3)Gal(b1-4)[Fuc(a1-3)]GlcNAc(b1-6)[Gal(b1-3)GlcNAc(b1-3)]Gal(b1-4)Glc
Outline: as §1

[6] = target: Gal(b1-3)GlcNAc(b1-3)GalNAc
Outline: as §1

[7] = target: Gal(b1-3)GlcNAc(b1-6)Gal(b1-4)GlcNAc
Outline: as §1

[8] = target: Gal(b1-3)GlcNAc(b1-6)GalNAc
Outline: as §1

[9] = target: Gal(b1-3)GlcNAc(b1-6)[Gal(b1-3)]GalNAc
Outline: as §1

[10] = target: Gal(b1-3)GlcNAc6S
Outline: as §1

[11] = target: Gal(b1-3)[Fuc(a1-4)]GlcNAc
Outline: as §1

[12] = target: Gal(b1-3)[Fuc(a1-4)]GlcNAc(b1-2)Man
Outline: as §1

[13] = target: Gal(b1-3)[Fuc(a1-4)]GlcNAc(b1-2)Man(a1-3)[Gal(b1-3)[Fuc(a1-4)]GlcNAc(b1-2)Man(a1-6)]Man(b1-4)GlcNAc(b1-4)GlcNAc
Outline: as §1

[14] = target: Gal(b1-3)[Fuc(a1-4)]GlcNAc(b1-2)Man(a1-3)[Gal(b1-3)[Fuc(a1-4)]GlcNAc(b1-2)Man(a1-6)]Man(b1-4)GlcNAc(b1-4)[Fuc(a1-6)]GlcNAc
Outline: as §1

[15] = target: Gal(b1-3)[Fuc(a1-4)]GlcNAc(b1-3)Gal(b1-3)[Fuc(a1-4)]GlcNAc
Outline: as §1

[16] = target: Gal(b1-3)[Fuc(a1-4)]GlcNAc(b1-3)Gal(b1-4)GlcNAc
Outline: as §1

[17] = target: Gal(b1-3)[Fuc(a1-4)]GlcNAc(b1-3)Gal(b1-4)[Fuc(a1-3)]GlcNAc
Outline: as §1

[18] = target: Gal(b1-3)[Fuc(a1-4)]GlcNAc(b1-6)GalNAc
Outline: as §1

[19] = target: Gal(b1-3)[GlcNAc(b1-6)]GalNAc
Outline: as §1

[20] = target: Gal(b1-3)[Neu5Ac(a2-6)]GalNAc
Outline: as §1

[21] = target: Gal(b1-3)[Neu5Ac(a2-6)]GlcNAc(b1-4)Gal(b1-4)Glc
Outline: as §1

[22] = target: Gal(b1-3)[Neu5Ac(a2-6)]GlcNAc(b1-6)Gal(b1-4)Glc
Outline: as §1

[23] = target: Gal(b1-3)[Neu5Ac(b2-6)]GalNAc
Outline: as §1

[24] = target: Gal(b1-4)Gal
Outline: as §1

[25] = target: Gal(b1-4)GalNAc(a1-3)[Fuc(a1-2)]Gal(b1-4)GlcNAc
Outline: as §1

[26] = target: Gal(b1-4)GalNAc(b1-3)[Fuc(a1-2)]Gal(b1-4)GlcNAc
Outline: as §1

[27] = target: Gal(b1-4)Glc
Outline: as §1

[28] = target: Gal(b1-4)Glc6S
Outline: as §1

[29] = target: Gal(b1-4)GlcNAc
Outline: as §1

[30] = target: Gal(b1-4)GlcNAc(a1-6)Gal(b1-4)GlcNAc
Outline: as §1

[31] = target: Gal(b1-4)GlcNAc(b1-2)Man
Outline: as §1

[32] = target: Gal(b1-4)GlcNAc(b1-2)Man(a1-3)Man(b1-4)GlcNAc(b1-4)GlcNAc
Outline: as §1

[33] = target: Gal(b1-4)GlcNAc(b1-2)Man(a1-3)[Gal(b1-4)GlcNAc(b1-2)Man(a1-6)]Man(b1-4)GlcNAc(b1-4)GlcNAc
Outline: as §1

[34] = target: Gal(b1-4)GlcNAc(b1-2)Man(a1-3)[Gal(b1-4)GlcNAc(b1-2)Man(a1-6)]Man(b1-4)GlcNAc(b1-4)[Fuc(a1-6)]GlcNAc
Outline: as §1

[35] = target: Gal(b1-4)GlcNAc(b1-2)Man(a1-3)[Gal(b1-4)GlcNAc(b1-2)Man(a1-6)][Gal(b1-4)GlcNAc(b1-4)]Man(b1-4)GlcNAc(b1-4)[Fuc(a1-6)]GlcNAc
Outline: as §1

[36] = target: Gal(b1-4)GlcNAc(b1-2)Man(a1-3)[Gal(b1-4)GlcNAc(b1-2)Man(a1-6)][GlcNAc(b1-4)]Man(b1-4)GlcNAc(b1-4)[Fuc(a1-6)]GlcNAc
Outline: as §1

[37] = target: Gal(b1-4)GlcNAc(b1-2)Man(a1-3)[GlcNAc(b1-2)Man(a1-6)]Man(b1-4)GlcNAc(b1-4)GlcNAc
Outline: as §1

[38] = target: Gal(b1-4)GlcNAc(b1-2)Man(a1-3)[GlcNAc(b1-4)][Gal(b1-4)GlcNAc(b1-2)Man(a1-6)]Man(b1-4)GlcNAc(b1-4)GlcNAc
Outline: as §1

[39] = target: Gal(b1-4)GlcNAc(b1-2)Man(a1-3)[Man(a1-6)]Man(b1-4)GlcNAc(b1-4)GlcNAc
Outline: as §1

[40] = target: Gal(b1-4)GlcNAc(b1-2)Man(a1-6)Man(b1-4)GlcNAc(b1-4)GlcNAc
Outline: as §1

[41] = target: Gal(b1-4)GlcNAc(b1-2)Man(a1-6)[GlcNAc(b1-2)Man(a1-3)]Man(b1-4)GlcNAc(b1-4)GlcNAc
Outline: as §1

[42] = target: Gal(b1-4)GlcNAc(b1-2)Man(a1-6)[Man(a1-3)]Man(b1-4)GlcNAc(b1-4)GlcNAc
Outline: as §1

[43] = target: Gal(b1-4)GlcNAc(b1-2)[Gal(b1-4)GlcNAc(b1-4)]Man(a1-3)[Gal(b1-4)GlcNAc(b1-2)Man(a1-6)]Man(b1-4)GlcNAc(b1-4)GlcNAc
Outline: as §1

[44] = target: Gal(b1-4)GlcNAc(b1-2)[Gal(b1-4)GlcNAc(b1-4)]Man(a1-3)[Gal(b1-4)GlcNAc(b1-2)[Gal(b1-4)GlcNAc(b1-6)]Man(a1-6)]Man(b1-4)GlcNAc(b1-4)GlcNAc
Outline: as §1

[45] = target: Gal(b1-4)GlcNAc(b1-2)[Gal(b1-4)GlcNAc(b1-4)]Man(a1-3)[GlcNAc(b1-4)][Gal(b1-4)GlcNAc(b1-2)Man(a1-6)]Man(b1-4)GlcNAc(b1-4)GlcNAc
Outline: as §1

B1: AAL (Agrocybe aegerita), Q6WY08 (protein)
chain: MQGVNIYNISAGTSVDLAAPVTTGDIVTFFSSALNLNAGAGNPNNTTLNLFAENGAYLLHIAFRLQENVIIFNSRQPDGPWLVEQRVSDVANQFAGIDGKAMVTVFDHGDKYQVVINEKTVIQYTKQISGLTLSLSYNATEETSIFSTVVEAVTYTGLALEHHHHHH
glycan array binding signal (z-score) [1]: -0.08 | glycan array binding signal (z-score) [2]: -0.097 | glycan array binding signal (z-score) [3]: -0.153 | glycan array binding signal (z-score) [4]: -0.166 | glycan array binding signal (z-score) [5]: -0.134 | glycan array binding signal (z-score) [6]: -0.149 | glycan array binding signal (z-score) [7]: -0.152 | glycan array binding signal (z-score) [8]: -0.164 | glycan array binding signal (z-score) [9]: -0.098 | glycan array binding signal (z-score) [10]: -0.129 | glycan array binding signal (z-score) [11]: -0.152 | glycan array binding signal (z-score) [12]: -0.11 | glycan array binding signal (z-score) [13]: -0.107 | glycan array binding signal (z-score) [14]: -0.111 | glycan array binding signal (z-score) [15]: -0.134 | glycan array binding signal (z-score) [16]: -0.133 | glycan array binding signal (z-score) [17]: -0.151 | glycan array binding signal (z-score) [18]: -0.141 | glycan array binding signal (z-score) [19]: -0.15 | glycan array binding signal (z-score) [20]: -0.159 | glycan array binding signal (z-score) [21]: -0.132 | glycan array binding signal (z-score) [22]: -0.161 | glycan array binding signal (z-score) [23]: -0.155 | glycan array binding signal (z-score) [24]: -0.108 | glycan array binding signal (z-score) [25]: -0.146 | glycan array binding signal (z-score) [26]: -0.135 | glycan array binding signal (z-score) [27]: -0.138 | glycan array binding signal (z-score) [28]: -0.136 | glycan array binding signal (z-score) [29]: -0.15 | glycan array binding signal (z-score) [30]: -0.149 | glycan array binding signal (z-score) [31]: -0.108 | glycan array binding signal (z-score) [32]: -0.142 | glycan array binding signal (z-score) [33]: -0.07 | glycan array binding signal (z-score) [34]: -0.104 | glycan array binding signal (z-score) [35]: -0.114 | glycan array binding signal (z-score) [36]: -0.138 | glycan array binding signal (z-score) [37]: -0.148 | glycan array binding signal (z-score) [38]: -0.13 | glycan array binding signal (z-score) [39]: -0.148 | glycan array binding signal (z-score) [40]: -0.162 | glycan array binding signal (z-score) [41]: -0.145 | glycan array binding signal (z-score) [42]: -0.149 | glycan array binding signal (z-score) [43]: -0.109 | glycan array binding signal (z-score) [44]: -0.09 | glycan array binding signal (z-score) [45]: -0.107
